According to the supplement of paper PMC11181314:
Some of the results follow. Single values of this set are uncertain.

Test system: U2OS
Test: Cell Painting induction (percent of morphological features significantly changed vs DMSO); higher = stronger morphological change
Settings: 10 µM, 20 h
Experimental: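 Cell Painting assay in U2OS cells: compounds at 10 µM for 20 h, six dyes, 579 robust CellProfiler features as Z-scores vs DMSO median (MAD). Induction is the % of significantly changed features (active if ≥5%); relative cell count is in % of DMSO. The primary run holds DCM compounds preselected for induction ≥10%; the confirmation repeat defines active compounds (370 of 549). Replicate agreement is low, attributed to precipitation.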

[1] = run: primary screen (compounds selected for induction >=10%)
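Further: stains mark DNA, RNA and nucleoli, ER, actin, Golgi, plasma membrane and mitochondria, read by high-content imaging, with DMSO controls at matching solvent concentration.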

| SMILES | Cell Painting induction (run: confirmation repeat) | Cell Painting induction [1] [%] |
| --- | --- | --- |
| O=C(NCC1CCN(Cc2ccc(F)cc2)CC1)Nc1cc(F)ccc1F | active: 31.4% | 33.9 |
| Cc1nn(C(C)C(=O)NCCCN(Cc2ccccc2)C(C)C)c(=O)c2c1sc1ccccc12 (stereo not given) | active: 46.8% | 56.1 |
| CC1=C(C(=O)Nc2cc(C(=O)N3CCN(c4cccc(C)c4)C(C)C3)ccc2C)SCCO1 (stereo not given) | active: 11.6% | 17.6 |
| COc1ccc(NC(=O)c2nnn(-c3ccc(OC)c(Cl)c3)c2C)c(OC)c1 | inactive: 0.5% | 40.9 |
| CC(C)(C)OC(=O)N1CCC(c2c(C(=O)N3CCN(C4CCCCC4)CC3)cnn2-c2ccc(F)cc2)CC1 | inactive: 1.2% | 19.5 |
| CC1=C(C(=O)Nc2ccc(Cl)cc2)C(c2cccc(Br)c2)n2nc(C(F)(F)F)nc2N1 (stereo not given) | active: 11.6% | 26.8 |
| CCCCSCCCNC(=O)c1cn(C)c2ccc(S(=O)(=O)N3CCCC3)cc2c1=O | inactive: 0% | 15.7 |
| COc1ccccc1N1CCN(C(CNS(=O)(=O)c2ccccc2)c2ccccc2)CC1 (stereo not given) | active: 24.4% | 31.3 |
| COCCn1c(=O)[nH]c2cc(C(=O)N3CCN(c4ccc(Cl)cc4)CC3)ccc2c1=O | active: 24% | 21.2 |
| O=S(=O)(c1ccc2nc(N3CCN(c4ccccc4F)CC3)ccc2c1)N1CCCCC1 | inactive: 0.2% | 16.4 |
